In the supplement of paper PMC9446081:
Hit rate of the full screen: of about 39,000 compounds, about 220 (0.56%) showed activity. The list shows a part of the results.

system: Escherichia coli K-12 BW25113; assay: relative growth (OD600 normalised to plate interquartile mean) (fraction); higher = less growth inhibition, active = 0.2 or less; details: 50 µM; LB; incubation time: overnight (16-24 h)
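Note: static incubation at 37 °C against the wild-type strain, values averaged over two biological replicates.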

Structure (SMILES) | relative growth
C[C@@H]1CN([C@@H](C)CO)C(=O)c2cccc(NS(=O)(=O)c3cccs3)c2O[C@@H]1CN(C)Cc1ccc(Cl)c(Cl)c1 | inactive: 1.01
CNC(=O)C[C@H]1CC[C@@H]2[C@H](COc3ccc(NC(=O)c4ccc(C(F)(F)F)cc4)cc3C(=O)N2C)O1 | inactive: 0.965
CN(C)CC(=O)N[C@H]1CC[C@@H](CCNS(=O)(=O)c2ccccc2)O[C@H]1CO | inactive: 1.01
Cc1ccc(S(=O)(=O)N(C)C[C@@H]2Oc3ncc(C#CC4(O)CCCC4)cc3C(=O)N([C@@H](C)CO)C[C@@H]2C)cc1 | inactive: 1.02
C[N+]1(C)C2CCC1CC(OC(=O)C(O)c1ccccc1)C2.[Br-] (centres undefined) | inactive: 0.924
C[C@@H]1CN([C@H](C)CO)C(=O)c2cc(NC(=O)Nc3cccc4ccccc34)ccc2O[C@@H](C)CCCCO[C@H]1CN(C)S(C)(=O)=O | inactive: 0.99
C[C@@H]1CCCCO[C@H](CN(C)CC2CC2)[C@H](C)CN([C@@H](C)CO)C(=O)c2cc(NC(=O)NC3CCCCC3)ccc2O1 | inactive: 1.01
Cc1ccc(S(=O)(=O)N(C)C[C@@H]2OCCCC[C@H](C)Oc3ccc(NC(=O)Nc4ccccc4)cc3C(=O)N([C@H](C)CO)C[C@@H]2C)cc1 | inactive: 1.05
Cc1ccc(S(=O)(=O)N(C)C[C@H]2Oc3c(NC(=O)C4CCOCC4)cccc3C(=O)N([C@@H](C)CO)C[C@H]2C)cc1 | inactive: 1.02
Cc1ccc(S(=O)(=O)Nc2ccc3c(c2)C(=O)N([C@@H](C)CO)C[C@@H](C)[C@@H](CN(C)Cc2ccccc2)OCCCC[C@@H](C)O3)cc1 | inactive: 0.995
C[C@H]1CN([C@@H](C)CO)C(=O)Cc2cc(NC(=O)Nc3cc(Cl)cc(Cl)c3)ccc2O[C@H]1CN(C)S(=O)(=O)c1ccc(Oc2ccccc2)cc1 | inactive: 1.02
C[C@@H]1CCCCO[C@@H](CN(C)Cc2ccc(C(=O)O)cc2)[C@@H](C)CN([C@@H](C)CO)C(=O)c2cc(NS(=O)(=O)c3cccs3)ccc2O1 | inactive: 1.01
Cc1ccc(S(=O)(=O)Nc2ccc3c(c2)C(=O)N([C@@H](C)CO)C[C@@H](C)[C@H](CN(C)C(=O)C2CCCCC2)OCCCC[C@@H](C)O3)cc1 | inactive: 0.979
O=C(N[C@@H](c1ccc(-c2ccccc2)cc1)c1cnccn1)C1CCN(Cc2ccc(Oc3ccccc3)cc2)CC1 | inactive: 1.03
C[C@@H]1CN([C@H](C)CO)C(=O)c2cccc(NC(=O)Nc3cccc4ccccc34)c2O[C@@H]1CN(C)Cc1ccc(-c2ccccc2)cc1 | inactive: 1.02
CCCN(C)C[C@H]1OCCCC[C@@H](C)Oc2ccc(NC(=O)C3CCCCC3)cc2C(=O)N([C@H](C)CO)C[C@@H]1C | inactive: 1.01
Cc1ccc(S(=O)(=O)Nc2ccc3c(c2)C(=O)N([C@@H](C)CO)C[C@H](C)[C@H](CN(C)Cc2ccc(-c4ccccc4)cc2)O3)cc1 | inactive: 1.03
C[C@@H]1CN([C@@H](C)CO)C(=O)Cc2cc(NC(=O)CCN3CCOCC3)ccc2O[C@@H]1CN(C)Cc1ccc(C(=O)O)cc1 | inactive: 1
C[C@@H]1CCCCO[C@H](CN(C)C(=O)NC2CCCCC2)[C@@H](C)CN([C@H](C)CO)C(=O)c2cc(NC(=O)Cc3ccccc3)ccc2O1 | inactive: 1
C[C@H]1CN([C@@H](C)CO)S(=O)(=O)c2ccc(C#CCN(C)C)cc2O[C@H]1CN(C)Cc1ccccc1F | inactive: 1

Structure (SMILES) | relative growth
Cc1noc(C)c1S(=O)(=O)Nc1ccc2c(c1)CC(=O)N([C@@H](C)CO)C[C@H](C)[C@H](CN(C)Cc1ccc(Oc3ccccc3)cc1)O2 | inactive: 1.01
COc1ccc(S(=O)(=O)N(C)C[C@H]2Oc3c(NS(=O)(=O)c4ccc(F)cc4)cccc3C(=O)N([C@H](C)CO)C[C@H]2C)cc1 | inactive: 1.01
C[C@H]1CN([C@@H](C)CO)S(=O)(=O)c2ccc(C3=CCCC3)cc2O[C@@H]1CN(C)C(=O)Cc1ccncc1 | inactive: 0.98
COc1ccc(NC(=O)Nc2ccc3c(c2)C(=O)N([C@H](C)CO)C[C@@H](C)[C@@H](CN(C)S(=O)(=O)c2cccs2)OCCCC[C@H](C)O3)cc1 | inactive: 1.06
C[C@@H]1CN([C@H](C)CO)C(=O)Cc2cc(NC(=O)Nc3cccc4ccccc34)ccc2O[C@@H]1CN(C)C(=O)Nc1ccccc1 | inactive: 1.03
C[C@H]1CN([C@@H](C)CO)C(=O)c2c(c3ccccc3n2C)-c2ccccc2CO[C@@H]1CN(C)Cc1cccc(C(=O)O)c1 | inactive: 1
COc1ccc(S(=O)(=O)N(C)C[C@H]2Oc3ccc(N(C)C)cc3CC(=O)N([C@H](C)CO)C[C@H]2C)cc1 | inactive: 1.02
CCCN(C)C[C@H]1OCCCC[C@@H](C)Oc2ccc(NC(=O)Nc3ccc4c(c3)OCO4)cc2C(=O)N([C@H](C)CO)C[C@@H]1C | inactive: 1.01
CCOC(=O)[C@H](N)/C=C(\C)CP(=O)(O)O | inactive: 0.989
CC(C)(C)[S@](=O)N1Cc2cc(C(=O)N3CCc4ccccc4C3)nc(-c3cccc(-c4ccncc4)c3)c2[C@@H]1CCO | inactive: 1.02
C[C@@H]1CN([C@H](C)CO)C(=O)c2cccc(NS(=O)(=O)c3ccc(F)cc3)c2O[C@H]1CN(C)S(=O)(=O)c1cn(C)cn1 | inactive: 0.991
O=C(Nc1ccc(C(F)(F)F)cc1)Nc1ccc2c(c1)[C@@H]1C[C@H](CC(=O)N3CCc4ccccc4C3)O[C@@H](CO)[C@@H]1O2 | inactive: 0.973
O=C1Nc2ccc(I)cc2C1=Cc1cc(Br)c(O)c(Br)c1 | inactive: 1.12
COc1ccc(S(=O)(=O)N(C)C[C@H]2OCCCC[C@@H](C)Oc3ccc(NC(=O)Nc4ccc(C(F)(F)F)cc4)cc3C(=O)N([C@@H](C)CO)C[C@H]2C)cc1 | inactive: 1.03
C[C@H](CO)N1C[C@H](C)[C@H](CN(C)S(=O)(=O)c2cccs2)Oc2ncc(-c3cccc(F)c3)cc2C1=O | inactive: 0.97
C[C@H]1CN([C@@H](C)CO)C(=O)c2cccc(NS(=O)(=O)c3ccccc3)c2O[C@@H]1CN(C)S(=O)(=O)c1cccs1 | inactive: 0.965
CO[C@H]1CN(C)C(=O)c2ccc(NC(=O)c3ccccc3)cc2OC[C@H](C)N(C(=O)CN(C)C)C[C@@H]1C | inactive: 1.02
C[C@@H]1CN([C@@H](C)CO)C(=O)c2cccc(NC(=O)Nc3ccc(C(F)(F)F)cc3)c2O[C@@H]1CN(C)C(=O)Nc1ccc(F)cc1 | inactive: 0.972
COCC(=O)N(C)C[C@H]1Oc2cc(C#Cc3ccccc3)ccc2S(=O)(=O)N([C@@H](C)CO)C[C@@H]1C | inactive: 1.02
COc1ccc2c3c([nH]c2c1)[C@@H](CO)N(C[C@]13CCN(CC1)CC1CCOCC1)S(=O)(=O)c1cn(cn1)C | inactive: 0.986

Structure (SMILES) | relative growth
C[C@H](CO)N1C[C@H](C)[C@@H](CN(C)Cc2ccc(C(=O)Nc3ccccc3N)cc2)Oc2c(NC(=O)c3ccc(-c4nccs4)cc3)cccc2C1=O | inactive: 0.994
COc1ccc(NC(=O)N2C[C@@H](O)COC[C@@H]3O[C@@H](CC(=O)NC4Cc5ccccc5C4)CC[C@H]32)cc1 | inactive: 1.01
C[C@H](CO)N1C[C@H](C)[C@H](CN(C)S(=O)(=O)c2ccccc2)Oc2ncc(-c3ccc(F)cc3)cc2C1=O | inactive: 0.98
CN(C)c1ccsc1C(=O)NN | inactive: 1.02
C[C@@H]1CN([C@H](C)CO)C(=O)c2cc(NC(=O)Cc3cn(C)c4ccccc34)ccc2O[C@H]1CN(C)Cc1ccc(C(=O)Nc2ccccc2N)cc1 | inactive: 0.977
C[C@@H]1CN([C@H](C)CO)C(=O)c2cc(NS(=O)(=O)c3ccc(Cl)cc3)ccc2O[C@@H](C)CCCCO[C@@H]1CN(C)Cc1ccc(Cl)c(Cl)c1 | inactive: 1.03
C[C@@H]1CN([C@H](C)CO)C(=O)c2cccc(NC(=O)c3ccc(-c4nccs4)cc3)c2O[C@H]1CN(C)CC1CCCCC1 | inactive: 1.03
C[C@H](CO)N1C[C@H](C)[C@H](CN(C)C(=O)Nc2cccc3ccccc23)Oc2ccc(NC(=O)C3CCCCC3)cc2C1=O | inactive: 0.999
COc1cc(CNC(=O)CCCCC=CC(C)C)ccc1O | inactive: 0.97
COc1ccccc1C#Cc1cnc2c(c1)C(=O)N([C@H](C)CO)C[C@H](C)[C@@H](CN(C)S(=O)(=O)c1cn(C)cn1)O2 | inactive: 0.976
C[C@@H]1CN([C@H](C)CO)C(=O)Cc2cc(NC(=O)Cn3cnnn3)ccc2O[C@H]1CN(C)C(=O)Nc1cccc2ccccc12 | inactive: 0.884
Cc1noc(C)c1NC(=O)Nc1ccc2c(c1)C(=O)N([C@@H](C)CO)C[C@H](C)[C@@H](CN(C)Cc1ccc(C(F)(F)F)cc1)O2 | inactive: 0.991
C[C@H]1CN([C@@H](C)CO)C(=O)c2cccc(NC(=O)c3nc4ccccc4s3)c2O[C@@H]1CN(C)Cc1ccc(Oc2ccccc2)cc1 | inactive: 1.01
C=C1[N-]O[N+](O)=C1CN(Cc1c(C)no[n+]1[O-])OC(C)=O | inactive: 1.01
CSc1nc(=O)c(CCO)c(C)[nH]1 | inactive: 1.02
CC(C)NC(=O)N(C)C[C@@H]1Oc2ccc(NS(=O)(=O)c3cn(C)cn3)cc2C(=O)N([C@H](C)CO)C[C@H]1C | inactive: 0.996
C[C@@H]1CN([C@@H](C)CO)C(=O)c2cccc(NC(=O)c3ccc(-c4nccs4)cc3)c2O[C@@H]1CN(C)C(=O)Nc1ccc(C(F)(F)F)cc1 | inactive: 0.99
COc1ccc([C@H](O)[C@H](CCO)OC)cc1O | inactive: 0.989
CN(CCO)S(=O)(=O)c1ccc2c(c1)C(=NO)c1cc(S(=O)(=O)N(C)CCO)ccc1-2 | inactive: 1.03
